Test results: PubChem BioAssay AID588342 (National Center for Advancing Translational Sciences (NCATS), 2011)
Where “and” joins values, the source holds several entries; their conditions need not be identical. Equal entries are not always repeated. In all, about 360,000 compounds went through this assay and about 25,000 (6.9%) were called active. The inconclusive results got no clear call from the source; some entries with a clear call stand among them for comparison. Calls come from the whole dose curve; as a rule, active = well fitted inhibition curve with a large enough effect; inconclusive = small, poorly fitted or top-dose-only effect; inactive = flat fitted curve, though single readings scatter. Potencies beside an inconclusive call are fits to weak or partial responses and may not hold up.

target: Luciferin 4-monooxygenase (Photinus pyralis) (UniProt P08659); assay: qHTS profiling assay for firefly luciferase inhibitor/activator using purifed enzyme and Km concentrations of substrates (counterscreen for miR-21 project); settings: purified FLuc, luminescence inhibition; activity change, negative = inhibition: at 57.5 µM (top of the series); note: nearly all actives have a fitted effect of over 55% in size;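 for activity change, negative = inhibition: plate controls were vehicle for no effect and reference inhibitor for full effect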
Summary of the method: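 Purified P. pyralis luciferase (10nM final) with 10uM D-luciferin and 10uM ATP (Km levels) in 50mM Tris acetate pH 7.5, 10mM Mg acetate, 0.01% Tween-20, 0.05% BSA; qHTS 6-point titration, ~60 µM downward; luminescence read.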
Potency is the fitted concentration of half-maximal effect; tags give direction and shape of the fitted curve.

Sequence of UniProt P08659 (P08659 whole entry, looked up): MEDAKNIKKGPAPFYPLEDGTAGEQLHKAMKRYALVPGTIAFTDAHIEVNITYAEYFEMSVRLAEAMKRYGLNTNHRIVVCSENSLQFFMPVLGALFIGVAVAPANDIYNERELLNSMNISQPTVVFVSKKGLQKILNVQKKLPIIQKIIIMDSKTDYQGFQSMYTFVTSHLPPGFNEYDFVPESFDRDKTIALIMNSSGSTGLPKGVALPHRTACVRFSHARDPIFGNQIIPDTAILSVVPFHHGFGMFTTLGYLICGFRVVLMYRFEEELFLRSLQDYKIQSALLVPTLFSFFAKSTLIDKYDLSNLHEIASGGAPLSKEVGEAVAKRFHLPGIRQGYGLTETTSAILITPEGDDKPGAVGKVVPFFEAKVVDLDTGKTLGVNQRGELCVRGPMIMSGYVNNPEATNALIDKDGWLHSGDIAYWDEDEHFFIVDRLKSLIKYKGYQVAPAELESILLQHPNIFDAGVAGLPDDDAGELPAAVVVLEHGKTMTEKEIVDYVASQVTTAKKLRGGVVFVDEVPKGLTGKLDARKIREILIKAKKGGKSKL

Compound | Potency | activity change, negative = inhibition
CC1CCN(C(=O)CSc2nc(-c3ccccc3)no2)CC1 | inconclusive: 30.1 µM [inhibitor, partial curve, poor fit] | –
O=C(O)c1cnn2c(-c3ccc(F)cc3)ccnc12 | – | inactive: 1.59%
Cc1c(NS(=O)(=O)c2ccccc2)cc(C(C)C)c(O)c1S(=O)(=O)c1ccc(Cl)cc1 | inconclusive: 33.8 µM [inhibitor, partial curve, poor fit] | –
Cc1ccc(C)c(OCCSc2nnc(C)c(=O)[nH]2)c1 | inconclusive: 30.1 µM [inhibitor, single point] | –
CCOC(=O)CN(c1ccccn1)S(=O)(=O)c1ccc(OC)cc1 | – | inactive: 1.3%
COc1ccc(CCNc2ncnc3c2cnn3-c2ccc(C)cc2)cc1 | inconclusive: 30.1 µM [inhibitor, partial curve, poor fit] | –
CN(C)c1ccc(N=Nc2ccccc2C(=O)OCC(=O)N2CCCCCC2)cc1 | inconclusive: 1.9 µM [inhibitor, full curve, poor fit] | –
CC1CCCC(C)N1C(=O)CSc1nc2ccccc2c(=O)[nH]1 (stereo not drawn) | inconclusive: 26.9 µM [inhibitor, partial curve, poor fit] | –
C=CCn1cccc(C(=O)Nc2ccc(N(C)C)cc2)c1=O | active: 8.49 µM | –
CCOc1ccc(C(=O)c2cn(Cc3ccccc3OC)c3ccc(F)cc3c2=O)cc1 | – | inactive: 0.01%
COC(=O)c1ccccc1NC(=O)C1COc2ccccc2O1 (stereo not drawn) | inconclusive: 37.9 µM [inhibitor, single point] | –
COc1ccc(-n2c(CC3C(=O)N(C)c4ccc(C)cc43)nc3ccccc3c2=O)cc1 (stereo not drawn) | – | inactive: -2.58%
COCCCNC(=O)C(=O)NC1CCCCC1C (stereo not drawn) | – | inactive: 0.428%
Oc1c(-c2cc(-c3ccco3)[nH]n2)ccc2ccccc12 | inconclusive: 0.675 µM [inhibitor, single point] | –
COCCn1c(SCc2csc(-c3ccccc3)n2)nc2ccccc21 | – | inactive: -5.24%
CCn1ncc(/C=N/NC(=O)c2cc(Cl)ccc2OC)c1C | inconclusive: 37.9 µM [inhibitor, partial curve, poor fit] | –
CC(C)C(=O)N=c1sc2cccc(F)c2n1C | inconclusive: 37.9 µM [inhibitor, partial curve, poor fit] | –
Cc1ccc(NC(=O)/C=C/c2ccc(C)o2)c(C)c1 | inconclusive: 23.9 µM [inhibitor, partial curve] | –
CC(=O)Oc1cccc(NC(=O)c2ccc3c(c2)C(=O)N(CC(C)C)C3=O)c1 | active: 10.7 µM | –
O=C(CSc1cn(CC(=O)N2CCOCC2)c2ccccc12)N1CCOCC1 | – | inactive: -1.75%
O=C(Nc1ccc(OCc2ccccc2)cc1)c1cccs1 | active: 16.9 µM | –
O=c1[nH]c2ccccc2nc1/C=C/c1ccc(Cl)cc1 | inconclusive: 0.953 µM [inhibitor, full curve] | –

Compound | Potency | activity change, negative = inhibition
CC(/C=C/c1ccccc1F)=N\NC(=O)c1cccc(F)c1 | inconclusive: 19 µM [inhibitor, partial curve] | –
O=c1c2c(-c3ccccc3)ccnc2[nH]n1-c1ccccc1 | inconclusive: 12 µM [inhibitor, partial curve] and inconclusive: 16.9 µM [inhibitor, partial curve] | –
Cc1cccc2cc(/C=N/NC(=O)c3ccccc3O)c(Cl)nc12 | inconclusive: 12 µM [inhibitor, partial curve] | –
CCOC(=O)/C=C/C(=O)Nc1ccc(Oc2ccccc2)cc1 | inconclusive: 37.9 µM [inhibitor, partial curve, poor fit] | –
Cc1ccc(NC(=Nc2ccc(Br)cc2)N2CCOCC2)cc1C | – | inactive: -19.8%
Cc1ccc(CN(C)C(=O)c2cc(COc3cccc(C(F)(F)F)c3)on2)o1 | inconclusive: 42.6 µM [inhibitor, partial curve, poor fit] | –
COC(=O)c1ccccc1NC(=O)c1c(O)c2c([nH]c1=O)CCCC2 | active: 21.3 µM | –
Cc1nn(-c2ccccc2)c(C)c1/C=N/NC(=O)c1cc(C23CC4CC(CC(C4)C2)C3)[nH]n1 | inconclusive: 15.1 µM [inhibitor, partial curve] | –
COc1ccc(NC(=O)CSCC(=O)N(C)Cc2c(F)cccc2Cl)cc1 | inconclusive: 2.13 µM [inhibitor, full curve, poor fit] | –
O=C(NCCc1ccccc1)c1cc(S(=O)(=O)N2CCCCC2)c[nH]1 | – | inactive: -6%
CC1(C)CCCN(Cc2c(O)ccc3c(=O)c(-c4nc5ccccc5s4)c(N)oc23)C1 | active: 6.01 µM | –
CCCCN(C(=O)C(C)(C)Oc1ccc(Cl)cc1)c1c(N)n(CCC)c(=O)[nH]c1=O | – | inactive: 0.0479%
CC(=N/O)/C(C)=N\NC(=O)c1ccccn1 | – | inactive: -19.9%
Cn1c(-c2ccc3c(c2)OCO3)cnc1NCc1ccc(Cl)cc1 | inconclusive: 30.1 µM [inhibitor, partial curve, poor fit] | –
CCN(CC)c1cc(C)c2cc(NC(=O)c3ccccc3OC)ccc2n1 | inconclusive: 37.9 µM [inhibitor, partial curve, poor fit] and inconclusive: 16.9 µM [inhibitor, partial curve, poor fit] | –
N#C/C(=C\c1ccc([N+](=O)[O-])cc1)c1ccccn1 | inconclusive: 23.9 µM [inhibitor, partial curve, poor fit] | –
O=C(NCCCN1CCOCC1)c1cccc(S(=O)(=O)Nc2cc(Cl)ccc2Cl)c1 | inconclusive: 21.3 µM [inhibitor, partial curve, poor fit] | –
O=C(NCCc1ccccc1)c1c(F)c(F)c(F)c(F)c1F | inconclusive: 15.1 µM [inhibitor, partial curve, poor fit] | –
COc1ccc2c(CC(=O)OCC(=O)c3ccccc3OC)coc2c1 | inconclusive: 23.9 µM [inhibitor, single point] | –
Cc1cc(/C=C2/NC(=O)N(Cc3ccccc3F)C2=O)c(C)n1-c1ccccn1 | inconclusive: 6.75 µM [inhibitor, partial curve, poor fit] | –
COc1ccc(/C=C2\C(=O)ON=C2c2ccccc2)cc1 | inconclusive: 15.1 µM [inhibitor, partial curve] | –
